The list shows a part of the results.

This test deals with T1, MBP-FoxP1dN (Mus musculus, UniProt P58462 326-579).
T1 sequence: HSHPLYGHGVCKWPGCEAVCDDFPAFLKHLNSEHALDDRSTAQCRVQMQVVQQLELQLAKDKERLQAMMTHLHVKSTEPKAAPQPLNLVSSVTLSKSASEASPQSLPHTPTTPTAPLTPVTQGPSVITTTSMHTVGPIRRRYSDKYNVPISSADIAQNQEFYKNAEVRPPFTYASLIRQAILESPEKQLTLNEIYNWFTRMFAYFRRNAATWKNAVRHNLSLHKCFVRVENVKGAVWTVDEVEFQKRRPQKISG
Nature of the test: PD-seq (MBP pull-down with sequencing); 20 mM Tris-HCl pH 7.5, 100 mM NaCl, 1.5 mM MgCl2, 0.4 uM protein, 0.1 uM dsDNA library, 30 min, room temperature, amylose pull-down; high values mean tight binding. The note with it: protein: recombinant; tags: His6-MBP; chain copies: 2; dsDNA, one strand shown. In short, it runs like this:
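His6-MBP-tagged mouse FoxP3 or FoxP1 fragment lacking the N-terminus, expressed in E. coli, was mixed at 0.4 µM with 0.1 µM Klenow-filled double-stranded degenerate DNA library. Incubation was 30 min at room temperature in Tris pH 7.5 buffer with NaCl and MgCl2. Complexes were caught on amylose resin and washed three times; DNA was released with proteinase K, PCR-barcoded and Illumina-sequenced. Binding is reads-per-million enrichment, pull-down over input, with replicates pooled.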
As to “GATGATTGTTCTCCCAGCTGATGAATTAGCTAACTCGAGTAAACAAATTTTCCTAATCTTTCTGTTCAAGCGCCATCTAC”, the binding signal is 0.866 RPM ratio (pull-down/input).
For “GATGATTGTTCTCCCAGCTGATGAATTGGTGCGGTCGAGTAAACAAATTTTCCTAATCTTTCTGTTCAAGCGCCATCTAC” the value was 0.845 RPM ratio (pull-down/input).
The value for “GATGATTGTTCTCCCAGCTGATGAATTTGCAATATCGAGTAAACAAATTTTCCTAATCTTTCTGTTCAAGCGCCATCTAC” was 1.34 RPM ratio (pull-down/input).
As to “GATGATTGTTCTCCCAGCTGATGAATTTAGAGAGTCGAGTAAACAAATTTTCCTAATCTTTCTGTTCAAGCGCCATCTAC”, the binding signal was 0.988 RPM ratio (pull-down/input).
Take “GATGATTGTTCTCCCAGCTGATGAATTGTAGTGATCGAGTAAACAAATTTTCCTAATCTTTCTGTTCAAGCGCCATCTAC”: the binding signal was 1.15 RPM ratio (pull-down/input).
For “GATGATTGTTCTCCCAGCTGATGAATTTACGTGCTCGAGTAAACAAATTTTCCTAATCTTTCTGTTCAAGCGCCATCTAC” the value was 1.12 RPM ratio (pull-down/input).
The value for “GATGATTGTTCTCCCAGCTGATGAATTGAAGACTTCGAGTAAACAAATTTTCCTAATCTTTCTGTTCAAGCGCCATCTAC” was 0.809 RPM ratio (pull-down/input); that for “GATGATTGTTCTCCCAGCTGATGAATTTCTAATCTCGAGTAAACAAATTTTCCTAATCTTTCTGTTCAAGCGCCATCTAC” was 0.82 RPM ratio (pull-down/input); that for “GATGATTGTTCTCCCAGCTGATGAATTCCCCAGCTCGAGTAAACAAATTTTCCTAATCTTTCTGTTCAAGCGCCATCTAC” was 0.738 RPM ratio (pull-down/input).
For “GATGATTGTTCTCCCAGCTGATGAATTTAGAGCTTCGAGTAAACAAATTTTCCTAATCTTTCTGTTCAAGCGCCATCTAC” the value was 0.869 RPM ratio (pull-down/input); for “GATGATTGTTCTCCCAGCTGATGAATTCAACGCCTCGAGTAAACAAATTTTCCTAATCTTTCTGTTCAAGCGCCATCTAC”, 0.907 RPM ratio (pull-down/input).
Take “GATGATTGTTCTCCCAGCTGATGAATTGGGTGCCTCGAGTAAACAAATTTTCCTAATCTTTCTGTTCAAGCGCCATCTAC”: the binding signal is 0.905 RPM ratio (pull-down/input).
“GATGATTGTTCTCCCAGCTGATGAATTTCTTGTCTCGAGTAAACAAATTTTCCTAATCTTTCTGTTCAAGCGCCATCTAC”: the binding signal was 0.875 RPM ratio (pull-down/input).
On to “GATGATTGTTCTCCCAGCTGATGAATTAATACTATCGAGTAAACAAATTTTCCTAATCTTTCTGTTCAAGCGCCATCTAC”, for which the binding signal was 1.09 RPM ratio (pull-down/input).
For “GATGATTGTTCTCCCAGCTGATGAATTATACTATTCGAGTAAACAAATTTTCCTAATCTTTCTGTTCAAGCGCCATCTAC” the value was 1.07 RPM ratio (pull-down/input); for “GATGATTGTTCTCCCAGCTGATGAATTCGTAGACTCGAGTAAACAAATTTTCCTAATCTTTCTGTTCAAGCGCCATCTAC”, 0.816 RPM ratio (pull-down/input); for “GATGATTGTTCTCCCAGCTGATGAATTACTGACGTCGAGTAAACAAATTTTCCTAATCTTTCTGTTCAAGCGCCATCTAC”, 1.02 RPM ratio (pull-down/input).
The value for “GATGATTGTTCTCCCAGCTGATGAATTGACATAGTCGAGTAAACAAATTTTCCTAATCTTTCTGTTCAAGCGCCATCTAC” was 1.25 RPM ratio (pull-down/input); that for “GATGATTGTTCTCCCAGCTGATGAATTATAGTGATCGAGTAAACAAATTTTCCTAATCTTTCTGTTCAAGCGCCATCTAC” was 1.04 RPM ratio (pull-down/input); that for “GATGATTGTTCTCCCAGCTGATGAATTTCCTAGATCGAGTAAACAAATTTTCCTAATCTTTCTGTTCAAGCGCCATCTAC” was 0.852 RPM ratio (pull-down/input).
For “GATGATTGTTCTCCCAGCTGATGAATTTTCGCCATCGAGTAAACAAATTTTCCTAATCTTTCTGTTCAAGCGCCATCTAC” the value was 1.05 RPM ratio (pull-down/input); for “GATGATTGTTCTCCCAGCTGATGAATTGGACTGCTCGAGTAAACAAATTTTCCTAATCTTTCTGTTCAAGCGCCATCTAC”, 0.752 RPM ratio (pull-down/input); for “GATGATTGTTCTCCCAGCTGATGAATTGTAACCGTCGAGTAAACAAATTTTCCTAATCTTTCTGTTCAAGCGCCATCTAC”, 1.05 RPM ratio (pull-down/input).
Take “GATGATTGTTCTCCCAGCTGATGAATTTCTCGCTTCGAGTAAACAAATTTTCCTAATCTTTCTGTTCAAGCGCCATCTAC”: the binding signal was 0.933 RPM ratio (pull-down/input).
Take “GATGATTGTTCTCCCAGCTGATGAATTTTGTGCGTCGAGTAAACAAATTTTCCTAATCTTTCTGTTCAAGCGCCATCTAC”: the binding signal was 1.12 RPM ratio (pull-down/input).
The value for “GATGATTGTTCTCCCAGCTGATGAATTCCGCGAGTCGAGTAAACAAATTTTCCTAATCTTTCTGTTCAAGCGCCATCTAC” was 0.794 RPM ratio (pull-down/input).
Consider “GATGATTGTTCTCCCAGCTGATGAATTGATTCGCTCGAGTAAACAAATTTTCCTAATCTTTCTGTTCAAGCGCCATCTAC”, for which the binding signal was 0.933 RPM ratio (pull-down/input).
For “GATGATTGTTCTCCCAGCTGATGAATTAAGTTATTCGAGTAAACAAATTTTCCTAATCTTTCTGTTCAAGCGCCATCTAC” the value was 1.16 RPM ratio (pull-down/input); for “GATGATTGTTCTCCCAGCTGATGAATTCTGAAATTCGAGTAAACAAATTTTCCTAATCTTTCTGTTCAAGCGCCATCTAC”, 0.893 RPM ratio (pull-down/input); for “GATGATTGTTCTCCCAGCTGATGAATTGCACATCTCGAGTAAACAAATTTTCCTAATCTTTCTGTTCAAGCGCCATCTAC”, 1.21 RPM ratio (pull-down/input).
Turning to “GATGATTGTTCTCCCAGCTGATGAATTGATGGGATCGAGTAAACAAATTTTCCTAATCTTTCTGTTCAAGCGCCATCTAC”, the binding signal is 0.903 RPM ratio (pull-down/input).
For “GATGATTGTTCTCCCAGCTGATGAATTAGCGTTATCGAGTAAACAAATTTTCCTAATCTTTCTGTTCAAGCGCCATCTAC” the value was 0.967 RPM ratio (pull-down/input).

Values taken from article PMC12820563, “FoxP3 forms a head-to-head dimer in vivo and stabilizes its multimerization on adjacent microsatellites”.
